Reference: PubChem BioAssay AID1460 (National Center for Advancing Translational Sciences (NCATS), 2008)
Screen size: about 270,000 compounds; about 5,800 (2.1%) were called active. Inconclusive results, whose numbers are uncertain, are shown with a selection of clear calls. Calls follow the shape of the dose curve; as a rule, active = well fitted inhibition curve with a large enough effect; inconclusive = small, poorly fitted or top-dose-only effect; inactive = flat fitted curve, though single readings scatter. A potency beside an inconclusive call is a rough fit, not a confirmed value.

target: Microtubule-associated protein tau (Homo sapiens) (UniProt P10636); assay: qHTS for Inhibitors of Tau Fibril Formation, Thioflavin T Binding; details: recombinant tau K18 P301L, heparin-induced fibrillization, ThT fluorescence; series mostly up to 57.4 µM; activity, negative = inhibition: at the top concentration; also: nearly all actives have a fitted effect of over 55% in size
Summary of the method: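 Fibril formation assay: tau K18 P301L at 15 uM with trace Alexa 594 label, heparin inducer 20 uM, pH 7 sodium acetate buffer, 37 C for 6 hr; endpoint ThT signal.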
% is scaled to controls: 0 for no effect and ±100 for the full control effect; potency is read from the fitted curve at half-maximal effect; tags tell the direction and shape of the fitted curve.

Chain of UniProt P10636 (P10636 whole entry, looked up): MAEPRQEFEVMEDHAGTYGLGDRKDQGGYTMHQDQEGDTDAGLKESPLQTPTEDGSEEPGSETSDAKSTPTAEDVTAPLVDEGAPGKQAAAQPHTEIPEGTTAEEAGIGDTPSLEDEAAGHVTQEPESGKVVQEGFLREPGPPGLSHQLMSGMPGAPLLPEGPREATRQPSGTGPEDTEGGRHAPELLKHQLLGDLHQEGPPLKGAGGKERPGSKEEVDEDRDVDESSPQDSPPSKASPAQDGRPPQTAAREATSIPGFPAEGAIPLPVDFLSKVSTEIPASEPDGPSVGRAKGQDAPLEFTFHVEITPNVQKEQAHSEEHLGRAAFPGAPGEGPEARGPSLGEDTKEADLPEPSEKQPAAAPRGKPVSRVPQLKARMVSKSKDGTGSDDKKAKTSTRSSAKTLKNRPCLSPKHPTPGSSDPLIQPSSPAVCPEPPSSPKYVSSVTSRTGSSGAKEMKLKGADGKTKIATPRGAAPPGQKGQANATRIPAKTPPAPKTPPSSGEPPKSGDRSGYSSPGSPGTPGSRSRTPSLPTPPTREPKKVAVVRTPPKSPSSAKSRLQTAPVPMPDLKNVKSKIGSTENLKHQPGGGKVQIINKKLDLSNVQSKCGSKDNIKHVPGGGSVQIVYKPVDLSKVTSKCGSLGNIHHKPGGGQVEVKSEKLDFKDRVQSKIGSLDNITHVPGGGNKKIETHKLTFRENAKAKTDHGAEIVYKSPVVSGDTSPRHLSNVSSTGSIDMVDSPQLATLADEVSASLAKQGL

Question: How did the Potency turn out when Cc1cc(C)cc(C(=O)n2cnnc2N)c1 was run?
Answer: The Potency was inconclusive: 22.4 µM [inhibitor, single point].

Question: With COc1ccc(NC(=O)CC2C(=O)N(c3ccc(F)cc3)C(=O)N2CCc2sccc2C)cc1 (centres undefined) as the molecule, how does the Potency read?
Answer: Its Potency is inconclusive: 3.16 µM [inhibitor, single point].

Question: How did the Potency turn out when Cc1ccc2scc(N3CCCCC3)c(=O)c2c1 was run?
Answer: Its Potency is inconclusive: 10 µM [inhibitor, partial curve].

Question: How did the “activity, negative = inhibition” value turn out when CSc1nc(N)c2ncn([C@@H]3O[C@H](COP(=O)(O)OP(=O)(O)OP(=O)(O)O)[C@H](O)[C@H]3O)c2n1 was run?
Answer: The value was inactive: -0.844%.

Question: Which Potency does the source give for Nc1ccc2nc(-c3ccc(O)cc3)sc2c1 here?
Answer: Its Potency is active: 7.94 µM.

Question: Which Potency does the source give for CCC(=O)NC(c1ccc(N(C)C)cc1)c1c(O)ccc2ccccc12 (centres undefined) here?
Answer: The Potency was inconclusive: 12.6 µM [inhibitor, partial curve].

Question: How did the Potency turn out when CCCCOc1ccc(CCC(=O)N/N=C/c2ccco2)cc1 was run?
Answer: Its Potency is inconclusive: 6.31 µM [inhibitor, partial curve].

Question: For O=C(NCc1ccco1)/C(=C\c1ccco1)NC(=O)c1ccco1, which Potency is on record?
Answer: Its Potency is active: 39.8 µM.

Question: For COCCCNC(=O)c1cnn(-c2ccc(F)cc2F)c1C1CCNCC1, which “activity, negative = inhibition” value is on record?
Answer: The value was inactive: 5.99%.

Question: For Cc1ccc(CNC(=O)c2cnc3c(-c4ccccc4)c(C)nn3c2C)o1, which Potency is on record?
Answer: Its Potency is inconclusive: 17.8 µM [inhibitor, single point].

Question: Which Potency does the source give for Cc1ccc(C(=O)Nc2nnc(S(=O)(=O)N3CCN(c4ccc(F)cc4)CC3)s2)cc1 here?
Answer: The Potency was active: 2.51 µM.

Question: COc1ccccc1N1CCN(CC(=O)NCC2CCCO2)CC1 (centres undefined) was tested. Which “activity, negative = inhibition” value did it give?
Answer: The value was inactive: -7.78%.

Question: How did the Potency turn out when COCCn1c(C)cc(C2=NNC(=Nc3ccc(OC)cc3)SC2)c1C was run?
Answer: The Potency was inconclusive: 15.8 µM [inhibitor, partial curve].

Question: How did the Potency turn out when Cc1ccc(C)c(Nc2cc(C(=O)NCCCN(C)C3CCCCC3)c3ccccc3n2)c1 was run?
Answer: Its Potency is inconclusive: 0.158 µM [inhibitor, partial curve, poor fit].

Question: For O=C(Cc1c[nH]c2ccccc12)Nc1nc2ccccc2[nH]1, which Potency is on record?
Answer: Its Potency is inconclusive: 22.4 µM [inhibitor, single point].

Question: For COc1ccc(Br)c(-c2nc(CS(=O)(=O)c3ccc(F)cc3)no2)c1, which Potency is on record?
Answer: Its Potency is inconclusive: 7.94 µM [inhibitor, partial curve].

Question: Which “activity, negative = inhibition” value does the source give for Cc1cc(C(=O)N/N=C2\CCCC(=O)C2)c2ccccc2n1 here?
Answer: Its value is inactive: -13.1%.

Question: With Cc1ccc2cc(C(c3nnnn3C3CCCC3)N3CCN(c4ccc(F)cc4)CC3)c(=O)[nH]c2c1 (centres undefined) as the molecule, how does the Potency read?
Answer: Its Potency is inconclusive: 28.2 µM [inhibitor, partial curve].

Question: CCc1nn(CC(=O)NCCCc2ccccc2)c(=O)c2cc3c(OC)cccc3n12 was tested. Which Potency did it give?
Answer: The Potency was inconclusive: 39.8 µM [inhibitor, single point].
